{
  "source": "paper PMC4336329",
  "about": "(PLoS ONE, 2015)",
  "note": "The campaign covered roughly 310,000 compounds. About 2,200 (0.71%) showed an effect of 50% or more. The effect is printed as a negative number. The list shows a part of the results.",
  "data": [
    {"biological_target": "human ether-à-go-go-related gene (hERG) potassium channel (human, UniProt Q12809)", "sequence (Q12809 whole entry, looked up)": "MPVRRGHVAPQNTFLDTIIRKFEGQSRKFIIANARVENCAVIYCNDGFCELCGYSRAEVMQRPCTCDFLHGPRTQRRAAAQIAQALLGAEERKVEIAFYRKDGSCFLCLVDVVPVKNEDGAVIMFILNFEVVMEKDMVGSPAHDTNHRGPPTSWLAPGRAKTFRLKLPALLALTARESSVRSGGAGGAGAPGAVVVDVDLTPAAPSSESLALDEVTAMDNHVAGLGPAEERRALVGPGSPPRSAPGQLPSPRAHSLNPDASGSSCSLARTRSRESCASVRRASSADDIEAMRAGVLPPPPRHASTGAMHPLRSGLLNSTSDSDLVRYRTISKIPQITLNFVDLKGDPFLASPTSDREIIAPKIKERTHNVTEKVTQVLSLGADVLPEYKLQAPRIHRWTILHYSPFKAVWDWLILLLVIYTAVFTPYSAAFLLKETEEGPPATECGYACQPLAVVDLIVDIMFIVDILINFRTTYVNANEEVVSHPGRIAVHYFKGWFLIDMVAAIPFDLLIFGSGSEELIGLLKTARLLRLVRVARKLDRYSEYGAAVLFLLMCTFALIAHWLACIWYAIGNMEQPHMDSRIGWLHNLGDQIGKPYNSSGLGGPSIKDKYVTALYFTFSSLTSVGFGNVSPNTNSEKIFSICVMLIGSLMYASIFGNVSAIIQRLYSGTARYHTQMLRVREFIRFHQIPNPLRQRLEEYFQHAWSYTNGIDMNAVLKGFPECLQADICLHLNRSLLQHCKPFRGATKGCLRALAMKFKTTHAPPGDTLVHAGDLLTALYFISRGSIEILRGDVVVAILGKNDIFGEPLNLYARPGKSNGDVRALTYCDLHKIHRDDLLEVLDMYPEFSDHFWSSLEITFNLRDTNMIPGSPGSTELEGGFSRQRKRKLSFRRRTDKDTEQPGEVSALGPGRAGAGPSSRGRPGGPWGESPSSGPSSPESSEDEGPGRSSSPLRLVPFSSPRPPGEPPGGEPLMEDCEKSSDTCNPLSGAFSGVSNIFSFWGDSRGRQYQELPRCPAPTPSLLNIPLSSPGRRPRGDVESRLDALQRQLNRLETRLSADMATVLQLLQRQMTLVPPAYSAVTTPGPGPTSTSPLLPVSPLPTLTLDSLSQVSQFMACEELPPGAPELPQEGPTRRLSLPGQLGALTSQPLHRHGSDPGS", "test": "primary screen, population patch clamp on CHO cells stably expressing hERG", "units": {"hERG current change (%, negative = inhibition) at 1uM": "%"}, "values": [
      {"smiles": "COc1ccccc1CNC(=O)COC(=O)c1cccc(S(=O)(=O)N2CCCC2)c1", "hERG current change (%, negative = inhibition) at 1uM": 30.5},
      {"smiles": "CCCCN(C)CCNC(=S)Nc1ccc2nc(N3CCN(CC)CC3)cc(C)c2c1", "hERG current change (%, negative = inhibition) at 1uM": 5.42},
      {"smiles": "CC(=O)Nc1ccc(-c2cc(N)n(-c3ccccc3)n2)cc1", "hERG current change (%, negative = inhibition) at 1uM": 11.2},
      {"smiles": "CCCCCC(=O)Nc1cc(S(=O)(=O)N2CCOCC2)ccc1N1CCCC1", "hERG current change (%, negative = inhibition) at 1uM": -2.6},
      {"smiles": "O=S(=O)(Cc1cc(Oc2ccccc2)nc(-c2ccccc2)n1)c1ccccc1", "hERG current change (%, negative = inhibition) at 1uM": 10.5},
      {"smiles": "CN1CCN(C(CNS(=O)(=O)c2cccs2)c2cccnc2)CC1", "note": "(stereo not shown)", "hERG current change (%, negative = inhibition) at 1uM": 1.07},
      {"smiles": "Cc1ccc(CNCc2ccccc2Cl)cc1.Cl", "hERG current change (%, negative = inhibition) at 1uM": 12.2},
      {"smiles": "CCCC(C)NC(=O)c1nc(-c2ccccc2)n(-c2ccccc2)n1", "note": "(stereo not shown)", "hERG current change (%, negative = inhibition) at 1uM": 8.43},
      {"smiles": "Cc1cccc(Cn2c(N3CCN(C)CC3)nc3c2c(=O)[nH]c(=O)n3C)c1", "hERG current change (%, negative = inhibition) at 1uM": -5.22},
      {"smiles": "NNC(=O)c1cc(S(=O)(=O)N2CCOCC2)c[nH]1", "hERG current change (%, negative = inhibition) at 1uM": 2.97},
      {"smiles": "Cc1ccc(SCc2nc(-c3ccccc3)no2)cc1", "hERG current change (%, negative = inhibition) at 1uM": 10},
      {"smiles": "Cc1ccc(OCCC(=O)Nc2ccc(F)c(F)c2)cc1", "hERG current change (%, negative = inhibition) at 1uM": 1.8},
      {"smiles": "NS(=O)(=O)c1ccc(CNC(=O)Cc2ccccc2[N+](=O)[O-])cc1", "hERG current change (%, negative = inhibition) at 1uM": 12.4},
      {"smiles": "COc1ccc(C)cc1S(=O)(=O)N1CCCC(C(=O)NCc2ccccn2)C1", "note": "(stereo not shown)", "hERG current change (%, negative = inhibition) at 1uM": 2.53},
      {"smiles": "CCc1ccc(NC(=O)CSc2nc3ccccc3c(=O)n2CCCN2CCC(C)CC2)cc1", "hERG current change (%, negative = inhibition) at 1uM": 0.336},
      {"smiles": "COc1ccc(C)cc1NCC(=O)Nc1ccc(C(C)(C)C)cc1", "hERG current change (%, negative = inhibition) at 1uM": 19.4},
      {"smiles": "Cc1ccccc1C(=O)Nc1cccc(-c2ccc3nncn3n2)c1", "hERG current change (%, negative = inhibition) at 1uM": -11.4},
      {"smiles": "CCOC(=O)CCc1c(C)c(C#N)c2nc3ccccc3n2c1-n1ccnc1C", "hERG current change (%, negative = inhibition) at 1uM": -20.4},
      {"smiles": "Cc1ccc2c(c1)CCCN2C(=O)c1ccoc1C", "hERG current change (%, negative = inhibition) at 1uM": 0.956},
      {"smiles": "COC(CNC(=O)c1ccc2c(c1)nc(C)n2-c1cccc(C)c1)OC", "hERG current change (%, negative = inhibition) at 1uM": 6.3},
      {"smiles": "CCN(CC)CCOC(=O)c1ccc(Cl)cc1.Cl", "hERG current change (%, negative = inhibition) at 1uM": -3.82},
      {"smiles": "COc1ccc(CN(C)C(=O)c2cnc(C)cn2)c(OC)c1OC", "hERG current change (%, negative = inhibition) at 1uM": 16.8},
      {"smiles": "O=C1/C(=C/c2ccncc2)SC(=S)N1C1CCS(=O)(=O)C1", "note": "(stereo not shown)", "hERG current change (%, negative = inhibition) at 1uM": 14.1},
      {"smiles": "CCOc1ccc(C(=O)COC(=O)c2cccc(-n3cnnn3)c2)cc1", "hERG current change (%, negative = inhibition) at 1uM": -2.87},
      {"smiles": "Nc1ccc(C(=O)NNC(=O)C2COc3ccccc3O2)cc1[N+](=O)[O-]", "note": "(stereo not shown)", "hERG current change (%, negative = inhibition) at 1uM": -1.72},
      {"smiles": "O=C1COc2ccc(C(=O)COC(=O)c3cc(S(=O)(=O)NCc4ccccc4)ccc3O)cc2N1", "hERG current change (%, negative = inhibition) at 1uM": 4.84},
      {"smiles": "Cc1nn(-c2ccccc2)c2c1C(c1ccc3c(c1)OCO3)SCC(=O)N2", "note": "(stereo not shown)", "hERG current change (%, negative = inhibition) at 1uM": 12.5},
      {"smiles": "O=C(Cc1ccccc1)Nc1ccccc1N1CCCC1", "hERG current change (%, negative = inhibition) at 1uM": 14.7},
      {"smiles": "Cc1ccc2ccccc2c1NC(=O)CNC1CCCCC1.[O-][Cl+3]([O-])([O-])O", "hERG current change (%, negative = inhibition) at 1uM": 14.8},
      {"smiles": "CCCn1c2c(c(O)c(C(=O)Nc3nccs3)c1=O)CCCC2", "hERG current change (%, negative = inhibition) at 1uM": 1.07},
      {"smiles": "C=CCN1CC[C@]23c4c5ccc(O)c4O[C@H]2/C(=N/NC(=O)c2ccccc2)CC[C@@]3(O)[C@H]1C5", "hERG current change (%, negative = inhibition) at 1uM": -40.1},
      {"smiles": "CC(C)=CC(=O)OCC(=O)Nc1ccc(Cl)cc1", "hERG current change (%, negative = inhibition) at 1uM": 3.01},
      {"smiles": "COc1ccc(CC(=O)N2CCN(c3ccccc3)CC2)cc1OC", "hERG current change (%, negative = inhibition) at 1uM": 17.8},
      {"smiles": "COc1ccc([N+](=O)[O-])cc1NC(=O)c1cc(C)c(C)o1", "hERG current change (%, negative = inhibition) at 1uM": 7.29},
      {"smiles": "CC(C)c1c(O)nc(SCCN(C)C)[nH]c1=O.Cl", "hERG current change (%, negative = inhibition) at 1uM": 8.81},
      {"smiles": "Cc1ccc2c(c1)N(CC(=O)N1CCCC1)C(=O)c1cccnc1O2", "hERG current change (%, negative = inhibition) at 1uM": 5.54},
      {"smiles": "COc1cc(C(=O)NCC(=O)N/N=C\\C(C)=C/c2ccccc2)cc(OC)c1OC", "hERG current change (%, negative = inhibition) at 1uM": 9.29},
      {"smiles": "CN1CC(=O)N(CC(=O)NCc2ccc3c(c2)OCO3)C1=O", "hERG current change (%, negative = inhibition) at 1uM": -0.832},
      {"smiles": "CCOc1ccc(N(CC(=O)Nc2cccnc2)S(C)(=O)=O)cc1", "hERG current change (%, negative = inhibition) at 1uM": 7.6},
      {"smiles": "CC1CCCN(CC(=O)Nc2cccc([N+](=O)[O-])c2)C1", "note": "(stereo not shown)", "hERG current change (%, negative = inhibition) at 1uM": 0.917},
      {"smiles": "Cn1c(=O)c2sc3c(c2n(CC(=O)Nc2ccccc2)c1=O)COC(C)(C)C3", "hERG current change (%, negative = inhibition) at 1uM": 13.8},
      {"smiles": "COc1ccc(-n2c(SCC(=O)N/N=C/c3ccccc3OCC(=O)O)nc3ccccc3c2=O)cc1", "hERG current change (%, negative = inhibition) at 1uM": 11.6},
      {"smiles": "O=C(c1ccc(Cl)nc1)N1CCN(S(=O)(=O)c2ccccc2)CC1", "hERG current change (%, negative = inhibition) at 1uM": 7.52},
      {"smiles": "CN(Cc1cccc(F)c1)C(=O)CN1CCN(S(=O)(=O)c2ccc3c(c2)OCCCO3)CC1", "hERG current change (%, negative = inhibition) at 1uM": 14.5},
      {"smiles": "COC(=O)CCn1[nH]c(=O)c2ccccc2c1=O", "hERG current change (%, negative = inhibition) at 1uM": 12.6},
      {"smiles": "COc1ccccc1CNC(=O)COC(=O)C1=COCCO1", "hERG current change (%, negative = inhibition) at 1uM": 14.9},
      {"smiles": "O=c1c2cc(N3CCOCC3)ccc2[nH]c(=S)n1CC1CCCO1", "note": "(stereo not shown)", "hERG current change (%, negative = inhibition) at 1uM": -3.92},
      {"smiles": "Cc1sc2nc(N)sc2c1C", "hERG current change (%, negative = inhibition) at 1uM": 6.77},
      {"smiles": "CCCNC(=O)CN1CCC(c2nc3ccccc3[nH]2)CC1", "hERG current change (%, negative = inhibition) at 1uM": 21.5},
      {"smiles": "CN(C)c1ccc(S(=O)(=O)NCC(=O)OCC(=O)Nc2cccc(Cl)c2)cc1[N+](=O)[O-]", "hERG current change (%, negative = inhibition) at 1uM": 1.08},
      {"smiles": "Cc1ccc2c(c1)C(N1CCCC1=O)CC(c1ccco1)N2", "note": "(stereo not shown)", "hERG current change (%, negative = inhibition) at 1uM": 3.23},
      {"smiles": "COc1ccc(COC(=O)N/N=C/c2cccs2)cc1", "hERG current change (%, negative = inhibition) at 1uM": 11.1},
      {"smiles": "COc1ccc2oc(C(=O)NC3CCCCC3)c(C)c2c1", "hERG current change (%, negative = inhibition) at 1uM": 4.78},
      {"smiles": "Oc1c(Br)cc(Br)cc1C=Nc1ccc2c(c1)OCO2", "hERG current change (%, negative = inhibition) at 1uM": 8.24},
      {"smiles": "COC(=O)c1cc(S(=O)(=O)Nc2cccc(C)c2C)cn1C", "hERG current change (%, negative = inhibition) at 1uM": 13.5},
      {"smiles": "CCOc1ccc(S(=O)(=O)Nc2ccc(C(=O)NCCCN3CCCC3=O)cc2)cc1", "hERG current change (%, negative = inhibition) at 1uM": 4.1},
      {"smiles": "C=CCOc1ccc(CNc2nn[nH]n2)cc1OC", "hERG current change (%, negative = inhibition) at 1uM": 9.95},
      {"smiles": "C/C(CS(=O)(=O)c1ccccc1)=N\\O", "hERG current change (%, negative = inhibition) at 1uM": 8.7}
    ]}
  ]
}
